Laboratory results taken from patent US20230183373A1 (MINERVA BIOTECHNOLOGIES, published 2023).
Each block holds one binder with its values, some of them ahead of it.

Assays:
[1] = molecular target: T1, PSMGFR minus 10 amino acids from the C-terminus; assay: ELISA on immobilised C-10 peptide (FIG. 20)
T1 construct: also called C-10; C-10 PSMGFR
T1 peptide: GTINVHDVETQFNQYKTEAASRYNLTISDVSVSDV

[2] = molecular target: T2, PSMGFR minus 10 amino acids from the N-terminus; assay: ELISA on immobilised peptide (FIG. 20)
T2 construct: also called N-10; N-10 PSMGFR
T2 peptide: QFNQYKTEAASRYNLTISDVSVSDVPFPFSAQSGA

[3] = molecular target: T3, PSMGFR peptide (Primary Sequence of the MUC1 Growth Factor Receptor); assay: ELISA on immobilised peptide (FIG. 20)
T3 construct: Synthetic peptide; also called MUC1* peptide; MUC1* PSMGFR peptide
T3 peptide: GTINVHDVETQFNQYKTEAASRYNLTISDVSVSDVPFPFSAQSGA

[4] = molecular target: T3, PSMGFR peptide (Primary Sequence of the …); assay: ELISA on PSMGFR (FIG. 21A)
[5] = molecular target: T3, PSMGFR peptide (Primary Sequence of the …); assay: ELISA on PSMGFR (FIG. 21A, B)
[6] = molecular target: T3, PSMGFR peptide (Primary Sequence of the …); assay: ELISA on PSMGFR (FIG. 21B)

B2: hu MN-E6 scFv-Fc-Y407R (Fc fusion)
chain: EVQLVESGGGLVKPGGSLRLSCAASGFTFSRYGMSWVRQAPGKRLEWVSTISGGGTYIYYPDSVKGRFTISRDNAKNTLYLQMNSLRAEDTAVYYCTRDNYGRNYDYGMDYWGQGTLVTVSSGGGGSGGGGSGGGGSEIVLTQSPATLSLSPGERATLTCSATSSVSYIHWYQQRPGQSPRLLIYSTSNLASGIPARFSGSGSGSDYTLTISSLEPEDFAVYYCQQRSSSPFTFGSGTKVEIK[human IgG1 Fc with Y407R (EU numbers) not written out]
notes: It therefore also carries that construct's leader and the vector residues AAQPA before the scFv; The mutation favours monomer over dimer; also called humanized E6 scFV-Fc Y407R
binding result [4]: binds

B3: hu MN-E6 scFv-Fc-hingeless (Fc fusion)
chain: EVQLVESGGGLVKPGGSLRLSCAASGFTFSRYGMSWVRQAPGKRLEWVSTISGGGTYIYYPDSVKGRFTISRDNAKNTLYLQMNSLRAEDTAVYYCTRDNYGRNYDYGMDYWGQGTLVTVSSGGGGSGGGGSGGGGSEIVLTQSPATLSLSPGERATLTCSATSSVSYIHWYQQRPGQSPRLLIYSTSNLASGIPARFSGSGSGSDYTLTISSLEPEDFAVYYCQQRSSSPFTFGSGTKVEIK[human IgG1 Fc not written out]
notes: It therefore also carries that construct's leader and the vector residues AAQPA before the scFv; also called humanized MN-E6 scFv-Fc-delta hinge; Dhinge
binding result [5]: binds

Next, values leading:

binding result [1]: no binding
binding result [2]: binds
binding result [3]: binds
B1: humanized MN-E6 scFv-Fc (wild type Fc) (Fc fusion)
chain: DAAQPAEVQLVESGGGLVKPGGSLRLSCAASGFTFSRYGMSWVRQAPGKRLEWVSTISGGGTYIYYPDSVKGRFTISRDNAKNTLYLQMNSLRAEDTAVYYCTRDNYGRNYDYGMDYWGQGTLVTVSSGGGGSGGGGSGGGGSEIVLTQSPATLSLSPGERATLTCSATSSVSYIHWYQQRPGQSPRLLIYSTSNLASGIPARFSGSGSGSDYTLTISSLEPEDFAVYYCQQRSSSPFTFGSGTKVEIK[human IgG1 Fc not written out]
notes: It was biotinylated for some tissue stainings; also called hu MN-E6 scFv-Fc; hu MN-E6 scFv-Fc-wt

binding result [6]: binds
B4: humanized MN-C3 scFv-Fc (Fc fusion)
chain: DAAQPAQVQLVQSGAEVKKPGASVKVSCKASGYTFTDYAMNWVRQAPGQGLEWMGVISTFSGNTNFNQKFKGRVTMTTDTSTSTAYMELRSLRSDDTAVYYCARSDYYGPYFDYWGQGTTLTVSSGGGGSGGGGSGGGGSDIVMTQTPLSLSVTPGQPASISCRSSQTIVHSNGNTYLEWYLQKPGQSPQLLIYKVSNRFSGVPDRFSGSGSGTDFTLKISRVEAEDVGVYYCFQGSHVPFTFGGGTKVEIKRT[human IgG1 Fc not written out]
notes: also called hu MN-C3 scFv-Fc; MN-C3 scFv-Fc fusion protein
